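Tested at 5 concentrations; 48 h exposure; 96-well plates; endpoints linearly interpolated, else capped at highest concentration. GI50 is the concentration that inhibits growth by half. TGI: concentration producing complete growth inhibition.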

In the test the test system is NCI-H322M lung. As to the kind of experiment: NCI anticancer screen, dose series, 48 h.
On to `CCCCCCNc1nc(NCCCCCC)c2[nH]c(NCCCCCC)nc2n1`, for which the GI50 is 1.65 µM and the TGI was found to be 17 µM.

`O=C(N/N=C/c1ccc(Cl)cc1Cl)c1ccccc1Nc1cccc(C(F)(F)F)c1`: the GI50 is 6.95 µM and the TGI is more than 100 µM.

Take `COc1ccc(C(=O)C(C(=O)CCC(=O)Nc2cccc(C(F)(F)F)c2)c2ccccc2)cc1` (configuration not stated): the TGI was more than 100 µM.

The molecule `N#CC(C#N)=Cc1cccc(Oc2ccccc2)c1` registered a TGI of more than 100 µM.

Regarding `Cn1c(N)nc2c(nc(OCc3ccccc3)n2C2OC(CO)C(O)C2O)c1=O` (configuration not stated), the TGI was more than 100 µM.

Molecule `c1ccc(-c2ccc(N=NN3CCCC3)cc2)cc1` returned a TGI of more than 100 µM.

With `CCOC(=O)Cc1nn2c(=O)cc(C)nc2s1`, the TGI was more than 100 µM.

`COCC(=O)OC1CCn2c1nc1c2C(=O)C(C)=C(NC(C)=O)C1=O` (configuration not stated): the TGI amounted to 38.6 µM.

For the molecule `COc1cc(-c2cn(C)c(=O)c(C)c2C)cc(OC)c1CN1CC[C@H](N2CCN(c3ccc(N[C@H]4CCC(=O)NC4=O)cc3F)CC2)C(F)(F)C1`, the GI50 is 16.2 µM and the TGI stood at 53.3 µM.

Take `CN1CCN(C)C1c1cccc(C2N(C)CCN2C)c1`: the TGI was more than 100 µM.

On to `CN(C)c1nc(=NCc2ccccn2)ss1`, for which the TGI was more than 10 µM.

`N#Cc1c(N)c(C(=O)O)nn(-c2cccc(C(F)(F)F)c2)c1=O` showed a TGI of more than 100 µM.

Take `Cc1ccc2/c(=C/c3ccc(N(C)C)cc3)c3cc(-c4ccccc4)[n+](C)n3c2c1`: the GI50 is 0.657 µM and the TGI came to 2.06 µM.

Regarding `C=C1CC2C(=O)N(c3ccccc3)C(=O)C2CC1n1[nH]c(=O)n(Cc2ccccc2)c1=O` (configuration not stated), the TGI was more than 100 µM.

Take `O=c1cc(-c2ccccc2F)[nH]c2cc3c(cc12)OCO3`: the TGI is more than 100 µM.

As to `CCOC(=O)[C@@H](C)C[C@H](Cc1ccccc1)NC(=O)c1csc([C@@H](C[C@H](C(C)C)N(C)C(=O)[C@@H](NC(=O)[C@H]2CCCCN2C)C(C)(C)C)OC(C)=O)n1`, the GI50 was less than 0.00167 µM and the TGI was more than 16.7 µM.

Molecule `CC(C)(C)c1ccc2c(c1)OCc1n[nH]c(n1)COc1cc(C(C)(C)C)ccc1OCCOCCO2` came in with a TGI of 30.4 µM.

Regarding `O=P(O)(O)C(O)(Cn1ccnc1)P(=O)(O)O`, the GI50 is more than 79.7 µM and the TGI was more than 100 µM.

In the case of `NS(=O)(=O)c1ccc(NC(=O)c2cccc3c(=O)c4ccccc4[nH]c23)cc1`, the TGI was more than 100 µM.

Molecule `COc1ccc2c(c1)[C@@]13CCN4CC5=CCO[C@H]6CC(=O)N2[C@H]1[C@H]6[C@H]5C[C@H]43` registered a TGI of more than 100 µM.

Take `CCOC(=O)c1csc(NC(=O)CCCC#N)n1`: the TGI is more than 100 µM.

`Cc1cc2c(cc1Cl)SC(NNc1cnc3ccccc3n1)=NS2(=O)=O` came in with a TGI of more than 100 µM.

As for `O=C(/C=C1\C[C@H]2C=Nc3ccccc3C(=O)N2C1)NCCCCCNC(=O)/C=C1\C[C@H]2C=Nc3ccccc3C(=O)N2C1`, the TGI came to 29.8 µM.

`CC(C)Cc1c(C#N)c(C#N)c(N)n1Cc1ccccc1`: the TGI was more than 100 µM.

`COn1cc(CO)c2ccccc21` gave a TGI of more than 100 µM.

`CCOC1NC(=O)c2ccccc21` (configuration not stated) came in with a TGI of more than 100 µM.

As for `C=CC(=O)N1CCN(c2ncnc3c(F)c(-c4c(O)cccc4F)c(Cl)cc23)CC1`, the GI50 was 14.2 µM and the TGI came out at 27.3 µM.

As to `CCC1(CC)C(=O)NC(=S)N=C1N`, the TGI was more than 100 µM.

The molecule `Cc1ccsc1C(=S)Nc1ccc(Cl)c(C(=O)OC(C(C)C)C(C)C)c1` registered a TGI of more than 100 µM.

On to `CC1CCCC(C(=O)/C(=C/c2cccc(Cl)c2)C(=O)C(=O)O)C1` (configuration not stated), for which the TGI was more than 100 µM.

`O=C1c2ccccc2-c2cccc3ccc(Cc4ccccc4)c1c23` had a TGI of more than 100 µM.

In turn, `Cc1cc(C)nc(NS(=O)(=O)c2ccc(Nc3c4ccccc4nc4c(C(=O)N5CCN(CCOS(C)(=O)=O)CC5)ccc(Cl)c34)cc2)n1` came in with a TGI of more than 100 µM.

`COc1ccc2c(-c3cc4ccccc4o3)cc(=O)oc2c1` yielded a TGI of more than 100 µM.

Consider `O=C1c2ccccc2-c2c1c1ccccc1c(=O)n2CCNCCCNCCn1c2c(c3ccccc3c1=O)C(=O)c1ccccc1-2`, for which the GI50 was 0.0231 µM and the TGI is 0.228 µM.

These data come from PubChem BioAssay (NCI).
